This is an account of results in the supplement of paper PMC10126150.

Values marked as one replicate rest on one cluster of the flow cell; about a third of the high ones do not repeat.
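Note: ATP exposure 15 min at 22 °C before imaging.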

This series relates to ATP. Put plainly: switch fluorescence ratio, 500 uM ATP over buffer (Cy3 cluster intensity, sum of 5 cycles each) (fold (ratio)); higher = stronger signal-on switching upon ATP binding; sequences stand for … in TCGTCGGCAGCGTCAGATGTGTATAAGAGACAGTTTTTTTTTTTTTTTTTTTTTTTTT…TC. To be noted: aptamer strand: ATP DNA aptamer (quencher-CACCTGGGGGAGTATTGCGGAGGAAGG + anchor), 100 nM annealed; ATP concentration: 500 uM; one replicate. In outline: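 Clusters carrying Cy3-labelled switching strands on a modified Illumina MiSeq flow-cell were annealed to 100 nM quencher-labelled ATP aptamer and imaged in selection buffer. They were imaged again after 15 min with 500 uM ATP at 22 °C, over five buffer/ATP cycles with NaOH stripping and re-annealing in between. For each cluster, the fluorescence ratio is the summed Cy3 intensity of the target cycles divided by that of the buffer cycles, averaged per switch-domain sequence. Clusters outside 100-1000 RFU were left out.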
On to GCTGTTAACT, for which the switch fluorescence ratio was 1.02.
Under GTGAAAAGAC stands 0.994; under TAACATCCAT, 1.02.
Consider ACCTCTTCCG, for which the switch fluorescence ratio worked out at 2.98.
Under CCGCTAATGT stands 3.84; under CCCCCGAGGA, 1.3.
Then AGGTCGAGAG, with 1; and GTAGTGAACT, with 0.99.
Regarding AAGCGAGTGT, the switch fluorescence ratio came to 1.
Then CCATATGGAA, with 1.05; and CCGGCCGGTG, with 1.08; and TTGGGTTGTC, with 0.981.
Consider GTCCTTCCTG, for which the switch fluorescence ratio turned out to be 1.73.
Under CGGTGCTCTC stands 1.02; under GACTGAATGG, 1.01.
Then GGTGTAAACA, with 1.03; and AACGTCACTT, with 1.67; and AATTTCACCT, with 1.12.
Turning to AGCCACTTGA, the switch fluorescence ratio was 0.964.
Then CCCCGTCAAT, with 1.01; and TGATAGGAGT, with 0.99.
Under GCGACTTTAT stands 1.08; under TCACTGAATA, 1.03.
As to GACTGAAGTA, the switch fluorescence ratio came to 1.07.
Then TGATCTGAGG, with 1.01.
Then TATACTCTG, with 1.05; and CATAACAAAG, with 0.975.
Under AGTTAGGAT stands 0.981.
In the case of TTTGCGGAAG, the switch fluorescence ratio was found to be 1.03.
Under CAGTTCTATA stands 1.01.
Under AACGTGGAAA stands 1.01; under CCGAAAACAT, 1.06; under AGCGGTCG, 0.918.
Then TTTCCCTGCC, with 1.4.
For ACTGGACTTT, the switch fluorescence ratio was 1.14.
Then ATCGTTACTG, with 1.06.
Under CAAACGCGCT stands 1.16.
Then TCTTGTACTG, with 1.08; and CAACGTGAG, with 0.978.
Take CTCCTTTGTA: the switch fluorescence ratio was found to be 0.992.
Then TCGACAGGTG, with 2.1; and GCGTTGCTTT, with 0.972.
Then CCAGGGGTGT, with 1.42; and AATAAAAACA, with 1.03.
Then CTAGCTAGCT, with 1.02.
GCGGTCTAGT: the switch fluorescence ratio turned out to be 0.973.
ATCTGGCCGG: the switch fluorescence ratio is 0.968.
Under GAGGTTCGAA stands 1; under AATCGCAGTT, 0.988; under ATAATGGTGA, 0.984.
Under GGATATTGTA stands 0.989; under GGGCAGGAGC, 0.993.
Then ATTCTCTATG, with 0.977.
Take CGCCAGCTCT: the switch fluorescence ratio amounted to 1.05.
Then TAATCAACAT, with 0.987.
Under AATTAAAAAC stands 0.945; under CGAGTAGTTG, 1.03; under CTAGCGGGTC, 0.987.
Then GGACTACTTG, with 0.94.
Regarding CCCAGTACTG, the switch fluorescence ratio came out at 1.11.
Under GAGTATGGTC stands 0.999.
Then TTCCCCAGCG, with 3.72; and TTTACACCAT, with 1.05; and CGTCGTGAAA, with 1.04.
Then AACTCTGTAT, with 0.982.
As for ATGTTATATT, the switch fluorescence ratio was found to be 1.02.
As for AAGTAATACG, the switch fluorescence ratio was determined as 1.23.
